# Experimental data taken from article PMC4336329 (PLoS ONE, 2015).
# Screen size: about 310,000 compounds; about 14,000 (4.5%) showed an effect of 50% or more. The effect is printed as a negative number. The list shows a part of the results.
# Biological target: human ether-à-go-go-related gene (hERG) potassium channel (human, UniProt Q12809)
# Assay: primary screen, population patch clamp on CHO cells stably expressing hERG
# 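Also: peak tail current of the secondary pulse compared with the same well before compound.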
# Sequence of human ether-à-go-go-related gene (hERG) potassium channel (Q12809 whole entry, looked up): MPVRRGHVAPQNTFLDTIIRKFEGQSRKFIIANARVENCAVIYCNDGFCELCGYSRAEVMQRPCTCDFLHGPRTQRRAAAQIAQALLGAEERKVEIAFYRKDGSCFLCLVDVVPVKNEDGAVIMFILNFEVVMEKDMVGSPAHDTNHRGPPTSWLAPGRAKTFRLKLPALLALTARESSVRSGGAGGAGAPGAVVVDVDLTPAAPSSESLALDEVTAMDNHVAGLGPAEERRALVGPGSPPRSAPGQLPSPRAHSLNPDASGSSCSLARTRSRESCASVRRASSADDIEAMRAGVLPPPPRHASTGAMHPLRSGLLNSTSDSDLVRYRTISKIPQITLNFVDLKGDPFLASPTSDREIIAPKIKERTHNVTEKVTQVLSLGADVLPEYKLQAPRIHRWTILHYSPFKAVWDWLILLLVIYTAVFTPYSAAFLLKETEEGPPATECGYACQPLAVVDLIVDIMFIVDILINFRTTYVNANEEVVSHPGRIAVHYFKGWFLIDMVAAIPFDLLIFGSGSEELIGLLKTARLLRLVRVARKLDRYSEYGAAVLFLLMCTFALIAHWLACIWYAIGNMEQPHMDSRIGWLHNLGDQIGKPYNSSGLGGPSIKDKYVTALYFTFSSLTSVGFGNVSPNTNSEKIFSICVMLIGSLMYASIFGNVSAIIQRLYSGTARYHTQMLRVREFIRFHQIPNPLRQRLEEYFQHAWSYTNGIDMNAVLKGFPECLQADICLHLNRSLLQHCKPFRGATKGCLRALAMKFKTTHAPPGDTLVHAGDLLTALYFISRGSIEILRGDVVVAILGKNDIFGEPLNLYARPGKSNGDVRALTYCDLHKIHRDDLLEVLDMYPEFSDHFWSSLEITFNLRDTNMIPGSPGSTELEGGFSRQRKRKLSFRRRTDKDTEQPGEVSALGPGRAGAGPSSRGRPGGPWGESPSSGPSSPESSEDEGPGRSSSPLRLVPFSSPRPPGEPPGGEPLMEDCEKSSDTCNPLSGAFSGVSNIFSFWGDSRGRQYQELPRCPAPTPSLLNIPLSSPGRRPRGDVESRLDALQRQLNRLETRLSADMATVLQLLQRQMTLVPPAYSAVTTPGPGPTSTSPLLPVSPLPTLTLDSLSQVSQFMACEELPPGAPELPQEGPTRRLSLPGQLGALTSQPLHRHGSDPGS
row,SMILES,"hERG current change (%, negative = inhibition) at 10uM [%]"
1,CCn1c(-c2c[nH]c3ccccc23)n[nH]c1=S,21.9
2,Nc1ccc(Br)cc1C(NCC(=O)O)c1ccccc1 (centres unmarked),22.9
3,Cc1nc2sc(C(c3ccccc3)N3CCN(c4ccccc4F)CC3)c(O)n2n1 (centres unmarked),-29.4
4,CN(CC(=O)NCCC1=CCCCC1)S(=O)(=O)c1ccc2c(c1)CCC(=O)N2,-5.37
5,Cc1cnc(CNC(=O)CC2C(=O)NCCN2Cc2ccccc2F)cn1 (centres unmarked),10.5
6,C[C@]12C=CC(=O)C=C1CC[C@@H]1[C@@H]2[C@@H](O)C[C@@]2(C)[C@H]1CC[C@]2(O)C(=O)COC(=O)CCC(=O)[O-].[Na+],30.8
7,O=C(O)c1ccc(N2CCCC2=O)cc1,15.6
8,Cc1nnc2ccc(N3CCN(c4cccc(C(F)(F)F)c4)CC3)nn12,-61.8
9,O=C(CSc1nnc(C2COc3ccccc3O2)o1)N1CCCc2ccccc21 (centres unmarked),5.53
10,CC12CC3(C)CC(C)(C1)CC(C(=O)NCc1ccccn1)(C2)C3,-19.2
11,COc1cccc(CNC(=O)CCC2CCCN(c3cc(C)nc(N4CCCC4)n3)C2)c1 (centres unmarked),-75
12,CN(C)c1nc(NCc2ccccc2)nc(N/N=C/c2ccccc2F)n1.Cl,3.33
13,COc1ccc(C(C)C)cc1S(=O)(=O)N1CCC(C(=O)N2CCN(C)CC2)CC1,6.34
14,CSc1nnc(CCCCCCCCc2nnc(SC)o2)o1,0.0249
15,Cn1c(-c2ccc3c(c2)OCO3)c(C(=O)O)c(=O)c2ccccc21,19.2
16,C[C@@H](O)CC#Cc1ccc2oc(=O)c(-n3cc(-c4ccsc4)nn3)cc2c1,17.4
17,CCOC(=O)c1c(NC(=S)NCC2CCCO2)sc(C)c1C (centres unmarked),22.8
18,Cc1cccc(-c2n[nH]c(=S)n2/N=C/c2ccc(C)s2)c1,-0.152
19,COc1ccc(OC)c(CCNC(=O)c2ccc(CS(=O)Cc3cccc(Cl)c3)o2)c1 (centres unmarked),-33.5

row,SMILES,"hERG current change (%, negative = inhibition) at 10uM [%]"
1,O=C(COC(=O)c1ccc(Cl)nc1)NCCNC(=O)COC(=O)c1ccc(Cl)nc1,-6.45
2,CN1c2ccccc2C(C)(C)C12CC(c1cccc(S(=O)(=O)N3CCCC3)c1)=NO2 (centres unmarked),2.91
3,Cc1ccc(N2C(=O)C3C(C2=O)N2C(c4cccs4)C4C(=O)N(c5ccc(C)cc5)C(=O)C4N2C3c2cccs2)cc1 (centres unmarked),3.78
4,CCN(C(=O)c1cc(Cl)ccc1OC)C1CCCCC1,-18.7
5,C/C(=N\NC(=O)c1ccc2c(c1)OCO2)c1ccc(NC(=O)CCCC(=O)O)cc1,21
6,CC(C)OP(=O)(OC(C)C)/C(C=O)=N\Nc1ccc([N+](=O)[O-])cc1,-55.1
7,O=C(CN1C(=O)/C(=C/c2ccco2)SC1=S)Nc1ccc(O)c(C(=O)O)c1,25.2
8,O=C(NC12CC3CC(CC(C3)C1)C2)c1ccc(-c2ccccc2Cl)o1,-1.37
9,NS(=O)(=O)c1ccc(NC(=O)CN2CCCC2)cc1,3.7
10,Cc1c(NC(=O)c2cc(-c3cccs3)on2)c(=O)n(-c2ccccc2)n1C,-29.7
11,Cc1[nH]c2ccccc2c1-c1nc(-c2ccc(Cl)cc2)nnc1-c1ccccc1,24.3
12,CC(C)CN(C(=O)COC(=O)CNC(=O)c1ccccc1)c1c(N)n(Cc2ccccc2)c(=O)[nH]c1=O,11.6
13,CC(=O)N/C(=C\c1ccc(Br)s1)C(=O)O,29
14,C(=C\c1nnc2c3ccccc3ncn12)/c1ccccc1,-21.8
15,Cc1cccc(OCC(=O)Nc2sc3c(c2C#N)CCC3)c1,1.65
16,CCc1nc(NCc2ccccc2)c(C#N)c2c1CCCC2,23.3
17,Cc1cc(C(=O)N2CCc3ccccc32)c2cc(F)ccc2n1,-4.52
18,CN1CCN(Cc2cc3c(cc2[N+](=O)[O-])OCO3)CC1,2.35
19,CCN1CCCC1CNC(=O)C1CCCN(S(=O)(=O)c2cccc3nsnc23)C1 (centres unmarked),-14.6

row,SMILES,"hERG current change (%, negative = inhibition) at 10uM [%]"
1,CN(C)CCCCOc1ccc(F)cc1.O=C(O)C(=O)O,-17.1
2,O=C(COC(=O)c1ccc(Cl)cc1[N+](=O)[O-])NC(=O)c1ccccc1,15.1
3,O=C1N/C(=N\N=C\c2ccco2)SC1Cc1ccc(F)cc1 (centres unmarked),14
4,Cc1ccc(S(=O)(=O)N2CCN(C(=O)Cn3c(=O)oc4ccccc43)CC2)c(C)c1,12.2
5,Cc1nnc(Sc2nc3c(c(=O)[nH]c(=O)n3C)n2Cc2ccccc2)s1,-24.8
6,CCNc1nc(Cl)nc(NC(C)C)n1,12.5
7,Cc1cc(C(=O)Nc2sc(C)c(-c3ccc(F)cc3)c2C(N)=O)no1,20.2
8,CCOc1ccc(CNc2ccc(N3CCN(Cc4ccccc4)CC3)cc2)cc1,13.1
9,Cn1c(C(N)=O)cnc1Sc1ncc(C(F)(F)F)cc1Cl,11.8
10,O=C(O)C1CC=CCC1C(=O)N1CCCC1 (centres unmarked),0.477
11,COc1ccc(/C=N/OCC(=O)N(Cc2ccccc2)c2ccccc2C(=O)O)cc1,-4.04
12,COC(=O)c1cc(CNC(=O)c2ccccc2OCc2c(C)noc2C)ccc1OC,-18
13,c1ccc(C2=NNC(c3ccccn3)=NN2)nc1,6.51
14,CCCNC(=O)/C=C/C(=O)O,9.27
15,COc1ccc(OC)c(NC(=O)c2cc(S(=O)(=O)N(C)C)ccc2N2CCCC2)c1,-68.1
16,COc1ccc(CN2CCNC(=O)C2CC(=O)N(C)CCc2cnn(C)c2)c(F)c1 (centres unmarked),-12.1
17,CC(=O)NC(=S)Nc1ccccc1N1CCN(C(=O)c2ccccc2)CC1,-8.1
18,CC1=CC(C)(C)N(S(=O)(=O)c2ccc(C)cc2)c2ccccc21,-9.72
